Reference: PubChem BioAssay AID2676 (National Center for Advancing Translational Sciences (NCATS), 2010)
The whole screen tested about 370,000 compounds, of which about 1,100 (0.3%) were called active. The inconclusive results got no clear call from the source; some entries with a clear call stand among them for comparison. The call rests on the fitted dose curve; in most records, active means well fitted activation curve with a large enough effect; inconclusive means small, poorly fitted or top-dose-only effect; inactive means flat fitted curve, though single readings scatter. Potencies beside an inconclusive call are fits to weak or partial responses and may not hold up.

Biological target: Relaxin receptor 1 (Homo sapiens) (UniProt Q9HBX9)
Test: qHTS Assay for Agonists of the Relaxin Receptor RXFP1; further: nearly all actives have a fitted effect of over 60% in size
Conditions: HEK293T-RXFP1 cAMP TR-FRET, 30 min; series mostly up to 57.5 µM
Procedure, shortened: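 HEK293T cells stably expressing RXFP1 were pretreated with the PDE4 inhibitor Ro 20174, exposed to compounds for 30 min at 37C, lysed, and cAMP was read by TR-FRET. Data normalized to buffer (basal) and 29 nM porcine relaxin (100%).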
Potency means the concentration at half of the fitted maximal effect; tags describe the fitted curve by direction and shape.

UniProt Q9HBX9, sequence (Q9HBX9 whole entry, looked up): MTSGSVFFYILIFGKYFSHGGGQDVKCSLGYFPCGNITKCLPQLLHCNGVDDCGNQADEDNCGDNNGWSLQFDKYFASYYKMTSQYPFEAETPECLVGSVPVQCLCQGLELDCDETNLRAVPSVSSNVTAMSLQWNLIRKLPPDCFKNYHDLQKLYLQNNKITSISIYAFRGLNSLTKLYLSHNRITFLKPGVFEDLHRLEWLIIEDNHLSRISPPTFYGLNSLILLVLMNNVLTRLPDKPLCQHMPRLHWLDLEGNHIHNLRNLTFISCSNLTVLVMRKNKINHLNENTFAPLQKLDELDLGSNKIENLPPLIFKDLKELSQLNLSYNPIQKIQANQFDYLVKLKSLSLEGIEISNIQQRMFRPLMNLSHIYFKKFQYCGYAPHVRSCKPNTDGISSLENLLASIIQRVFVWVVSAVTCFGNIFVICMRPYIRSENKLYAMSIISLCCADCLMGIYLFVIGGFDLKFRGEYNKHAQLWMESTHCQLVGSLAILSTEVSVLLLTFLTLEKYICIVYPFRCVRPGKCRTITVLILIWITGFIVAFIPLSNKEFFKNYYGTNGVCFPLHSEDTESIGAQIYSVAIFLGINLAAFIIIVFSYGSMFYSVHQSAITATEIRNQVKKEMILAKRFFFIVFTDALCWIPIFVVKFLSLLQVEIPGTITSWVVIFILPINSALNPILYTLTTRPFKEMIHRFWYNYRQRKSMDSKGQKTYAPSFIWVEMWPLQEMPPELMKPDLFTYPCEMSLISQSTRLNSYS

Potency, active:
O=c1oc2cc(O)ccc2c2ccccc12 14.1 µM
CCOc1ccc(NC(=O)CSc2ccc3nnc(-c4cccnc4)n3n2)cc1 25.1 µM

Potency, inactive:
CCc1ccc(NC(=O)c2ccc3oc(=O)n(Cc4ccccc4)c3c2)cc1
Cc1ccc2nc(NC(=O)C3CCN(S(=O)(=O)c4cccs4)CC3)sc2c1
CCCC(=O)NC(=S)Nc1ccccc1C(F)(F)F
COc1ccccc1N1CCN(C(=O)c2cnn(-c3ccc(C)c(C)c3)c2C2CCN(C(=O)OC(C)(C)C)CC2)CC1

Potency, inconclusive:
CCN(Cc1cnn(C)c1)C(=O)c1cc(COc2ccc3c(c2)CCCC3)on1 28.2 µM [activator, partial curve]
CCCC(=O)N1CCN(c2ccc(C(=O)c3ccc(OC)c(Br)c3)cc2F)CC1 35.5 µM [activator, single point]
Cc1ccc(CCNC(=O)CCCn2c(=O)c3cccn3c3ccc(F)cc32)cc1 17.8 µM [activator, single point]
NS(=O)(=O)c1ccc(NS(=O)(=O)c2ccc(NC(=O)C3CC3)cc2)cc1 39.8 µM [activator, single point]
Fc1ccc(-[n+]2nc(Nc3ccccc3)sc2-c2ccc(OCc3ccccc3)cc2)cc1 31.6 µM [activator, single point]
Cc1cccc(CSc2nc3c(cc2C#N)CCC3)c1 39.8 µM [activator, single point]
COc1ccc(Cn2c(=O)c3oc4ccccc4c3n(CC(=O)Nc3cc(C)cc(C)c3)c2=O)cc1 28.2 µM [activator, single point]
CCN(CC)S(=O)(=O)c1ccc(N2CCOCC2)c(NC(=O)c2cc3ccccc3oc2=O)c1 28.2 µM [activator, partial curve]
CC[C@@H](C)[C@H](NC(=O)CNC(=O)Cc1c(C)c2c(cc(C)c3c(C)coc32)oc1=O)C(=O)O 28.2 µM [activator, partial curve]
Cc1ccccc1NC(=O)CSc1nc(N)c(C#N)c(-c2cccs2)c1C#N 35.5 µM [activator, single point]
Cc1ccc2c(ccc(=S)n2C)c1 15.8 µM [activator, partial curve]
CCOC(=O)CSc1nc(N)c(C#N)c(-c2cccs2)c1C#N 39.8 µM [activator, single point]
NC(N)=Nc1nc2ccc(Br)cc2c(=O)[nH]1 35.5 µM [activator, single point]
